Where two headings read alike, the source gives them in different places.
Tests used:
[1] = tested on: HCV genotype 1b (strain Con1) subgenomic replicon; parameters: method as in PMID 31303998; conditions: earlier lead compounds; read-out: Huh5-2 (HCV Replicon 1b) EC50; cited from earlier work
[2] = tested on: HCV genotype 1b (strain Con1) subgenomic replicon; assay: microbe, parasite or virus in culture; format: cell-based, hepatitis C virus; conditions: for EC50: 72 h, luciferase, mean ± SD, read-out: Huh5-2 (HCV Replicon 1b) EC50
HCV NS5A protein = assay: Western blot analysis for NS5A in Huh5-2 cells; conditions: serial dilutions
[3] = Hepatitis C virus, Huh-5-2, 72 h

O=C(CN1C(=O)NC2(CCCCc3ccccc32)C1=O)NO (centres unmarked) [IV]
EC50 [1]: 250 ± 20 nM

CC(C(=O)NO)N1C(=O)N(C)C2(CCC(c3ccccc3)CC2)C1=O (centres unmarked) [Compound 53, N-(hydroxy)-2-(1-methyl-2,4-dioxo-8-phenyl-1,3-diazaspiro [4.5]decan-3-yl)propanamide]
EC50 [2, 3]: 8660 ± 760 nM

O=C(CN1C(=O)NC2(CCC(c3ccccc3)CC2)C1=O)NO (centres unmarked) [Compound 36, N-Hydroxy-2-(2,4-dioxo-8-phenyl-1,3-diazaspiro [4.5]decan-3-yl) acetamide]
EC50 [2, 3]: 2530 ± 110 nM

CC1CCC2(NC(=O)N(CC(=O)NO)C2=O)c2ccccc21 [Compound 35, Ν-(Hydroxy)-2-((4R,4′R)/(4S,4′S)-4′-methyl-2,5-dioxo-3′,4′-dihydro-2′H-spiro[imidazolidine-4,1′-naphthalene]-1-yl)acetamide]
EC50 [2]: 7310 ± 420 nM

O=C(CN1C(=O)N(Cc2ccccc2)C2(CCC(c3ccccc3)CC2)C1=O)NO (centres unmarked) [Compound 41, N-Hydroxy-2-(1-benzyl-2,4-dioxo-8-phenyl-1,3-diazaspiro [4.5]decan-3-yl)acetamide]
EC50 [2, 3]: > 10000 nM

CC(C(=O)NO)N1C(=O)NC2(CCC(c3ccccc3)CC2)C1=O (centres unmarked) [Compound 49, N-(Hydroxy)-2-(2,4-dioxo-8-phenyl-1,3-diazaspiro [4.5]decan-3-yl)propanamide]
EC50 [2, 3]: > 10000 nM

CN1C(=O)N(CC(=O)NO)C(=O)C12CCCCC2c1ccccc1 (centres unmarked) [Compound 39, N-Hydroxy-2-(1-methyl-2,4-dioxo-6-phenyl-1,3-diazaspiro [4.5]decan-3-yl)acetamide]
EC50 [2, 3]: > 10000 nM

CCN1C(=O)N(CC(=O)NO)C(=O)C12CCC(c1ccccc1)CC2 (centres unmarked) [Compound 40, N-Hydroxy-2-(1-ethyl-2,4-dioxo-8-phenyl-1,3-diazaspiro [4.5]decan-3-yl)acetamide]
EC50 [2, 3]: 340 ± 60 nM

O=C(CN1C(=O)NC2(CCCCC2c2ccccc2)C1=O)NO (centres unmarked) [Compound 37, N-Hydroxy-2-(2,4-dioxo-6-phenyl-1,3-diazaspiro [4.5]decan-3-yl) acetamide]
EC50 [2, 3]: > 10000 nM

CN1C(=O)N(CC(=O)NO)C(=O)C12CCC(c1ccccc1)CC2 (centres unmarked) [Compound 38, N-Hydroxy-2-(1-methyl-2,4-dioxo-8-phenyl-1,3-diazaspiro [4.5]decan-3-yl)acetamide]
EC50 [2, 3]: 2750 ± 960 nM

CC1CCC2(NC(=O)N(CC(=O)NO)C2=O)c2ccccc21 [Compound 34, Ν-(hydroxy)-2-((4R,4′S)/(4S,4′R)-4′-methyl-2,5-dioxo-3′,4′-dihydro-2′H-spiro[imidazolidine-4,1′-naphthalene]-1-yl)acetamide]
anti-HCV (genotype 1b) potency in comparison with 35 [2]: eight-times-better potency | EC50 [2]: 980 ± 100 nM | effect on levels of the viral NS5A protein (HCV NS5A protein): negative effect

O=C(CN1C(=O)N(Cc2ccccc2)C2(CCCCC2c2ccccc2)C1=O)NO (centres unmarked) [Compound 42, N-Hydroxy-2-(1-benzyl-2,4-dioxo-6-phenyl-1,3-diazaspiro [4.5]decan-3-yl)acetamide]
EC50 [2, 3]: 740 ± 20 nM

— PMC10385743
